Results: PubChem BioAssay AID504339 (National Center for Advancing Translational Sciences (NCATS), 2011)
Hit rate of the full screen: of about 390,000 compounds, about 17,000 (4.4%) were called active. The inconclusive results got no clear call from the source; some entries with a clear call stand among them for comparison. Calls follow the shape of the dose curve; as a rule, active = well fitted inhibition curve with a large enough effect; inconclusive = small, poorly fitted or top-dose-only effect; inactive = no such curve, though single readings can be large or run the other way. Where the call is inconclusive, the potency comes from a doubtful curve fit.

molecular target: Lysine-specific demethylase 4A (Homo sapiens) (UniProt O75164); experiment: qHTS Assay for Inhibitors of JMJD2A-Tudor Domain; conditions: AlphaScreen JMJD2A-Tudor / H3K4me3 peptide binding; activity change, negative = inhibition: at 114 µM (top of the series); also: nearly all actives have a fitted effect of over 50% in size
% is scaled to controls: 0 for no effect and ±100 for the full control effect; potency is read from the fitted curve at half-maximal effect; tags tell the direction and shape of the fitted curve.

Sequence of UniProt O75164 (O75164 whole entry, looked up, the tested form may be a part): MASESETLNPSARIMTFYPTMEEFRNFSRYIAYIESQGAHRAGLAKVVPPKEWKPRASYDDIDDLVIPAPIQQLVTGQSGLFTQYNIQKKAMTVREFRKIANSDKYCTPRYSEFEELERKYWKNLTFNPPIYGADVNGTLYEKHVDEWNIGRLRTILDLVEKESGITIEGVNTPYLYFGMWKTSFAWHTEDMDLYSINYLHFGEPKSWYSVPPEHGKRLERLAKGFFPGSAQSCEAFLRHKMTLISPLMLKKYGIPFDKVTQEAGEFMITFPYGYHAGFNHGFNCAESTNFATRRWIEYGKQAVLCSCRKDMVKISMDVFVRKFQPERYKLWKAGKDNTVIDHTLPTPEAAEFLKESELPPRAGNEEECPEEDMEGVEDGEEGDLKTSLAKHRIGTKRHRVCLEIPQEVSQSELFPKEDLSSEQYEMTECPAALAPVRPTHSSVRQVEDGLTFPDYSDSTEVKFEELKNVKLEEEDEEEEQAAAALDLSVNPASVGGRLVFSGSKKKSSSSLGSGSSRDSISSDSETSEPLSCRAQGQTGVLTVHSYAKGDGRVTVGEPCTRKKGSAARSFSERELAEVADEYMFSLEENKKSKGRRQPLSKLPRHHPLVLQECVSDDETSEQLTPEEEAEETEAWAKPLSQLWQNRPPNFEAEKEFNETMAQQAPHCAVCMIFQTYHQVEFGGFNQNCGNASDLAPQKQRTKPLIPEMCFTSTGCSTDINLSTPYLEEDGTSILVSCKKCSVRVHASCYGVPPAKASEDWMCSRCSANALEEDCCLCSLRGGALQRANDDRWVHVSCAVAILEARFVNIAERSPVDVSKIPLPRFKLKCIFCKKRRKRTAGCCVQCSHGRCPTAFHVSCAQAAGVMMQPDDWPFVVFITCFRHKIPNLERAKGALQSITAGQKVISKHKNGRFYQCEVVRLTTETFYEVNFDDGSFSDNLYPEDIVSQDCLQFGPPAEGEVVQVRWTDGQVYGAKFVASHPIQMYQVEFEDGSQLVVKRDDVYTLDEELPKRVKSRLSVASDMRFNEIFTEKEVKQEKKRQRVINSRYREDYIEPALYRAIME

Potency, active:
Cc1ccccc1Nc1c(-c2ccc(N3CCOCC3)cc2)nc2ccccn12 28.2 µM, COc1ccc(/C(O)=C2/C(=O)C(=O)N(Cc3cccnc3)C2c2ccco2)cc1OC (configuration not stated) 25.1 µM, Cc1cccc(C(=O)Nc2nnc(C3=COCCO3)o2)c1 39.8 µM, CC1CCCCC1N1CCN(C(=O)c2cccc(F)c2)CC1 (configuration not stated) 39.8 µM, CN(C)CCNc1ccc(CO)c2sc3ccc(O)cc3c(=O)c12 50.1 µM, Cc1nn(CCc2n[nH]c(=S)n2C2CCCCC2)c(C)c1Br 79.4 µM, COc1cc(/C=C(\C#N)C(=O)c2c[nH]c3ccccc23)cc(OC)c1O 50.1 µM, O=C(Nc1cccc(S(=O)(=O)N2CCCCC2)c1)c1ccc2ncsc2c1 28.2 µM, COc1ccc(N2CSC3=C(C#N)C(c4cc(OC)c(OC)cc4OC)CC(=O)N3C2)c(OC)c1 (configuration not stated) 20 µM, Cc1[nH]n(-c2ccccc2)c(=O)c1/C=N/NC(=O)C(C)C 79.4 µM, CC(=O)/C(=N/Nc1ccccc1[N+](=O)[O-])N1CCCc2ccccc21 11.2 µM, CC(C)(C)NC(=O)C(c1ccncc1)N(Cc1ccco1)C(=O)c1ccc(-c2ccccc2)[nH]1 (configuration not stated) 50.1 µM, Cn1nc(C(=O)N2CCN(c3ccccc3F)CC2)c2c1-c1ccccc1SC2 20 µM, CCOc1ccc(-c2cnc(NCc3ccc(OC)cc3OC)n2C)cc1 28.2 µM

Potency, inconclusive:
Cc1ccccc1-c1cccc([C@@H]2C[C@H]3[C@H](CON3C)CN2Cc2ccccc2)c1 44.7 µM [inhibitor, partial curve], CC(=O)Nc1ccc(/C(N=Nc2ccccc2)=N/N=C(N)N)cc1 39.8 µM [inhibitor, partial curve], Nc1ccc2c(c1)COc1ccccc1O2 50.1 µM [inhibitor, partial curve, poor fit], COc1ccc(-c2nc(SCC(=O)Nc3ccc4c(c3)OCCO4)c(-c3ccc(C)cc3)[nH]2)cc1OC 28.2 µM [inhibitor, partial curve], c1ccc(-c2cc(-c3nn4c(-c5ccco5)nnc4s3)c3ccccc3n2)cc1 25.1 µM [inhibitor, full curve], Cc1ccc2nc3sc(C(=O)NCCCN(C)c4ccccc4)cc3cc2c1 11.2 µM [inhibitor, full curve], CC1=[N+]([O-])C(C)(C)C(C)N(O)C1=O (configuration not stated) 28.2 µM [inhibitor, partial curve], CCOC(=O)c1ccc(N=Nc2c(C)c(C#N)c(O)[nH]c2=O)cc1 39.8 µM [inhibitor, partial curve], C=CCOc1ccc(/C=C2\SC(=S)N(NS(=O)(=O)c3ccccc3)C2=O)cc1 63.1 µM [inhibitor, partial curve, poor fit], CC(C)(C)C1CCc2nc(NC(=O)Cc3cn4ccsc4n3)sc2C1 (configuration not stated) 50.1 µM [inhibitor, partial curve], N=c1n(Cc2ccccc2)c2ccccc2n1CC(O)COc1ccc(Cl)cc1Cl (configuration not stated) 63.1 µM [inhibitor, partial curve, poor fit], CCOc1ccc(CCNC(=O)c2ccc3c(c2)c(C)c(C)n3Cc2ccccc2)cc1OCC 10 µM [inhibitor, full curve, poor fit], CC(NC(=O)C1CCN(C(=O)[C@@H]2Cc3ccccc3CN2)CC1)c1ccccc1 (some centres not stated) 100 µM [inhibitor, single point], Oc1ccc(-c2csc(NCc3ccco3)n2)cc1 39.8 µM [inhibitor, single point], CCCCCCCNC(=O)c1ccc(N2CCC3(CC2)OCCO3)c([N+](=O)[O-])c1 28.2 µM [inhibitor, full curve, poor fit], Cc1cc(C)n(CC(C)NC(=O)c2cc(COc3c(F)cccc3F)on2)n1 (configuration not stated) 20 µM [inhibitor, partial curve], Cc1c(C)n(C(=O)CN2CCN(c3ccccc3)CC2)c2ccccc12 56.2 µM [inhibitor, partial curve], COc1ccccc1CNC(=O)Cc1csc(NC(=O)Nc2ccccc2OC)n1 39.8 µM [inhibitor, single point], CN(c1ccccc1)c1nc(N)c([N+](=O)[O-])c(NCc2ccco2)n1 25.1 µM [inhibitor, partial curve], Cc1ccc(-c2nc(N=Nc3ccc(O)cc3)n[nH]2)cc1 89.1 µM [inhibitor, partial curve], CC(C)c1ccc(NC(=O)C(=O)C2C(=O)Nc3ccccc32)cc1 (configuration not stated) 100 µM [inhibitor, partial curve], COc1cccc(/C(O)=C2/C(=O)C(=O)N(Cc3cccnc3)C2c2ccco2)c1 (configuration not stated) 56.2 µM [inhibitor, partial curve], CN(C)CCCN(C(=O)c1cc2cc([N+](=O)[O-])ccc2s1)c1nc2cc3c(cc2s1)OCCO3 63.1 µM [inhibitor, partial curve, poor fit], Cc1c(C(=O)c2ccc(Cl)cc2[N+](=O)[O-])c2ccccn2c1CCC#N 25.1 µM [inhibitor, single point], O=C(NNC(=S)NC1CCCCC1)c1sc2ccccc2c1Cl 70.8 µM [inhibitor, single point], O=C(NCCCN1CCCCCC1)c1ccc(N2CCCC2=O)cc1 89.1 µM [inhibitor, single point], N#C/C(=N\Nc1ccccc1[N+](=O)[O-])C(=N)N1CCCCC1 89.1 µM [inhibitor, single point], Cc1ccc(C2=Nc3ccccc3N(CC(=O)Nc3cccc(F)c3)C(=O)C2)cc1C 39.8 µM [inhibitor, partial curve], CCc1c(C)sc2c1CCN(Cc1ccc(F)cc1)C2c1ccccc1 (configuration not stated) 56.2 µM [inhibitor, partial curve], NN1C(=O)/C(=C\c2ccco2)SC1=S 63.1 µM [inhibitor, partial curve, poor fit], CN(c1ccc(O)cc1)c1nc(O)c(C2=c3ccccc3=NC2=O)s1 14.1 µM [inhibitor, full curve], Clc1cccc(-c2ccc(C=Nc3ccc(N4CCOCC4)cc3)o2)c1 31.6 µM [inhibitor, partial curve], CC(C)C[C@H](NC(=O)CCn1nnc2ccccc2c1=O)C(=O)O 17.8 µM [inhibitor, single point], Cc1ccc2nc3c(cc(C(N)=S)c(=N)n3CCCOC(C)C)c(=O)n2c1 31.6 µM [inhibitor, full curve, poor fit], COCCCN1C(=O)C(=O)/C(=C(/O)c2ccc(OC(C)C)cc2)C1c1cccnc1 (configuration not stated) 79.4 µM [inhibitor, partial curve], O=C(NCc1ccc(F)cc1)c1ccc(NC(=O)N2CC3CCCN3c3ccccc32)cc1 (configuration not stated) 20 µM [inhibitor, full curve], Cn1cccc1Cc1nnc(SCC(=O)Nc2ccccc2)n1-c1ccc(F)cc1 56.2 µM [inhibitor, partial curve, poor fit], COc1cc(C(C)=O)ccc1Oc1cc(NN2CCCCC2)c([N+](=O)[O-])cc1[N+](=O)[O-] 25.1 µM [inhibitor, full curve], Cc1cc(C(=O)N/N=C2/CC(C)CC(C)(C)C2)c(C)o1 (configuration not stated) 25.1 µM [inhibitor, single point]

Activity change, negative = inhibition, inactive:
COc1ccc(C2CC(c3cccs3)=NN2C(=O)c2ccco2)cc1OC (configuration not stated) -27%, CCn1nc(C(=O)NCc2nnc3ccccn23)c2ccccc2c1=O -4.14%, CCOc1ccc2nc(N/C(N)=N/C(=S)Nc3ccc(C)c(C)c3)nc(C)c2c1 -19.9%, COc1ccc2c(C)c(C(=O)O)oc2c1 -25.2% [at 57.1 µM], CC1CN(C(=O)c2ccc(-c3cccc(C(F)(F)F)c3)o2)CC(C)O1 (configuration not stated) -4.83%, O=C1C2CCCN2c2ccc(S(=O)(=O)N3CCOCC3)cc2N1Cc1ccccc1F (configuration not stated) -10.2% [at 57.1 µM], CC1(C)Oc2ccc3ccc(=O)oc3c2CC1O (configuration not stated) 6.64%, O=C(Oc1ccccc1Cl)C1CCN(C(=O)c2ccc(F)cc2)CC1 -4.14%, Cc1sc2ncn(/N=C/c3cn(-c4ccccc4)nc3-c3ccccc3)c(=O)c2c1C -21.9%, CCCN1CCC(=O)N([C@H](COc2ccccc2)c2ccccc2)CC1 -12.1%, Cc1nn2c3c(cnc2c1-c1ccccc1)C(=O)CCC3 -4.73%, O=[N+]([O-])c1cc(S(=O)(=O)Nc2ccc(Cl)cc2)ccc1N/N=C/c1ccncc1 -16.9%, O=C(CN1CCN(Cc2ccc(Cl)cc2)C1=O)NCc1ccc(F)cc1 -17%, Cc1nc(C(C)NC(=O)c2cc(COc3ccc(C)c(C)c3)on2)c(C)s1 (configuration not stated) 16.1%, CC1CC(=O)C2=C(C1)Nc1nc3ccccc3n1C2c1cccnc1 (configuration not stated) -13.7%, CC(Oc1cccc(Cl)c1)C(=O)Nc1cc(S(=O)(=O)N2CCOCC2)ccc1N1CCCC1 (configuration not stated) -7.86%, COCc1cc(C)n(CC(=O)Nc2ccc(Cl)cc2Cl)c(=O)c1C#N 10.6%, CCCCCC1C(=O)C[C@@H]2CCN3C(=O)CCC[C@H]1[C@H]23 (some centres not stated) -9.42%, COc1cccc(C(=O)CSc2nnnn2C)c1 -2.84%
